For assay [1], the system named is HSkMC (human skeletal muscle cells). The assay can be described thus: cytotoxicity call (relative viability < 0.9). The note with it: 10 µM.
The test system of assay [2] is HepG2. The assay can be described thus: cytotoxicity call (relative viability < 0.9). The note with it: 10 µM.
In assay [3] the test system is S. aureus RN4220. The assay can be described thus: growth inhibition call (relative growth <= 0.2). The conditions noted are these: 50 µM.

This is one part of the list.

In the case of `C[C@@H]1CN([C@@H](C)CO)C(=O)Cc2cc(NS(=O)(=O)c3ccc(F)cc3)ccc2O[C@H]1CN(C)C(=O)Nc1cccc2ccccc12`, the cytotoxicity call in assay [1] and in assay [2] was “inactive” throughout. Further, the growth inhibition call in assay [3] was “inactive”.
On to `C[C@@H]1CN([C@H](C)CO)C(=O)CCCn2nncc2CO[C@H]1CN(C)C(=O)c1ccc(N2CCN(C)CC2)cc1`, for which the cytotoxicity call in assay [1] and in assay [2] was “inactive” in each case. Moreover, the growth inhibition call in assay [3] is “inactive”.
Consider `COc1ccc(S(=O)(=O)Nc2ccc3c(c2)C(=O)N([C@@H](C)CO)C[C@@H](C)[C@H](CN(C)CC2CCCCC2)OCCCC[C@H](C)O3)cc1`, for which the cytotoxicity call in assay [1] and in assay [2] was “inactive” in each case. For the same compound, in assay [3], the growth inhibition call was “inactive”.
Consider `CC(C)NC(=O)Nc1ccc2c(c1)C(=O)N([C@@H](C)CO)C[C@@H](C)[C@H](CN(C)Cc1ccccc1)OCCCC[C@@H](C)O2`, for which the cytotoxicity call in assay [1] and in assay [2] was “inactive” throughout. Moreover, the growth inhibition call in assay [3] was “inactive”.
With `CO[C@H](CN(C)S(=O)(=O)c1ccc(Cl)cc1)[C@@H](C)CN([C@H](C)CO)S(=O)(=O)c1cccc(Cl)c1`, the cytotoxicity call in assay [1] and in assay [2] was “inactive” throughout. In assay [3], the growth inhibition call is “inactive”.
`Nc1ccccc1Nc1ccccc1`: the cytotoxicity call in assay [1] and in assay [2] was “inactive” in each case. Moreover, the growth inhibition call in assay [3] is “inactive”.
`CC(C)NC(=O)N(C)C[C@@H]1Oc2ncc(-c3ccc(C(=O)N(C)C)cc3)cc2C(=O)N([C@@H](C)CO)C[C@@H]1C`: the cytotoxicity call in assay [1] and in assay [2] was “inactive” each time. In assay [3], the growth inhibition call was “inactive”.
Regarding `COc1ccc2c3c([nH]c2c1)[C@@H](CO)N(C[C@]13CCN(CC1)CC1CCCCC1)C(=O)Nc1cccc(c1)F`, the cytotoxicity call in assay [1] and in assay [2] was “active” throughout. Also, the growth inhibition call in assay [3] is “active”.
With `C=c1ccc(C)cc1=C1NN=C(NC(=O)c2ccc(S(=O)(=O)N(CCOC)CCOC)cc2)O1`, the cytotoxicity call in assay [1] is “active”. In addition, the cytotoxicity call in assay [2] is “inactive”. In addition, in assay [3], the growth inhibition call is “inactive”.
As for `Cc1ccc(S(=O)(=O)N(C)C[C@@H]2Oc3c(NC(=O)Nc4ccc(C(F)(F)F)cc4)cccc3C(=O)N([C@@H](C)CO)C[C@H]2C)cc1`, the cytotoxicity call in assay [1] and in assay [2] was “inactive” in each case. Further, the growth inhibition call in assay [3] is “inactive”.
In the case of `C[C@@H]1CCCCO[C@@H](CN(C)C(=O)NC2CCCCC2)[C@H](C)CN([C@H](C)CO)C(=O)c2cc(NC(=O)c3ccncc3)ccc2O1`, the cytotoxicity call in assay [1] and in assay [2] was “inactive” throughout. Besides, the growth inhibition call in assay [3] is “inactive”.
Take `C[C@H](CO)N1C[C@H](C)[C@H](CN(C)Cc2ccc(-c3ccccc3)cc2)Oc2ccc(NC(=O)Nc3ccc(C(F)(F)F)cc3)cc2CC1=O`: the cytotoxicity call in assay [1] and in assay [2] was “active” in each case. Also, in assay [3], the growth inhibition call is “inactive”.
In the case of `C[C@H]1CN([C@@H](C)CO)C(=O)c2cc(C#Cc3ccccc3F)cnc2O[C@H]1CN(C)S(=O)(=O)c1ccccc1F`, the cytotoxicity call in assay [1] and in assay [2] was “inactive” throughout. In assay [3], the growth inhibition call is “inactive”.
As to `C/C=C1/[C@H](O[C@@H]2O[C@H](CO)[C@@H](O)[C@H](O)[C@H]2O)OC=C(C(=O)OC)[C@H]1CC(=O)OCCc1ccc(O)c(O)c1`, the cytotoxicity call in assay [1] and in assay [2] was “inactive” each time. Also, the growth inhibition call in assay [3] is “inactive”.
For the compound `C[C@@H]1CN([C@H](C)CO)C(=O)c2c(c3ccccc3n2C)-c2ccccc2CO[C@@H]1CN(C)Cc1ccc(C(F)(F)F)cc1`, the cytotoxicity call in assay [1] was “active”. Further, the cytotoxicity call in assay [2] was “inactive”. Besides, in assay [3], the growth inhibition call was “inactive”.
For the compound `O=C(CCCCCCC(=O)N/N=C/[C@H](O)[C@@H](O)[C@@H](O)[C@H](O)C(=O)O)NO`, the cytotoxicity call in assay [1] and in assay [2] was “inactive” throughout. Besides, the growth inhibition call in assay [3] was “inactive”.
On to `O=C(C[C@@H]1C[C@H]2c3cc(NC(=O)Nc4ccc(C(F)(F)F)cc4)ccc3O[C@H]2[C@H](CO)O1)NC1CCCCC1`, for which the cytotoxicity call in assay [1] and in assay [2] was “inactive” in each case. Moreover, the growth inhibition call in assay [3] was “inactive”.
For the compound `C[C@@H]1CN([C@@H](C)CO)C(=O)c2cccc(NC(=O)CCCCCC(=O)Nc3ccccc3N)c2O[C@@H]1CN(C)S(=O)(=O)c1cn(C)cn1`, the cytotoxicity call in assay [1] and in assay [2] was “inactive” each time. In addition, the growth inhibition call in assay [3] is “inactive”.
Take `COCC(=O)N(C)C[C@H]1Oc2cc(C#C[C@H](C)O)ccc2S(=O)(=O)N([C@@H](C)CO)C[C@H]1C`: the cytotoxicity call in assay [1] and in assay [2] was “inactive” each time. Further, in assay [3], the growth inhibition call is “inactive”.
Consider `O[C@@H]1[C@@H](O)[C@H](OC/C=C/c2ccccc2)O[C@H](CO[C@@H]2OC[C@@H](O)[C@@H](O)[C@@H]2O)[C@H]1O`, for which the cytotoxicity call in assay [1] and in assay [2] was “inactive” each time. In assay [3], the growth inhibition call is “inactive”.
On to `C[C@H]1CN([C@@H](C)CO)C(=O)c2cc(NC(=O)Cn3cnnn3)ccc2O[C@@H]1CN(C)Cc1ccc2c(c1)OCO2`, for which the cytotoxicity call in assay [1] and in assay [2] was “inactive” each time. In assay [3], the growth inhibition call is “inactive”.
Take `C[C@@H]1CCCCO[C@@H](CN(C)CC2CC2)[C@H](C)CN([C@@H](C)CO)C(=O)c2cc(NC(=O)Nc3ccccc3)ccc2O1`: the cytotoxicity call in assay [1] and in assay [2] was “inactive” throughout. For the same compound, the growth inhibition call in assay [3] was “inactive”.
With `COCC#Cc1ccc2c(c1)O[C@@H](CN(C)Cc1ccc3c(c1)OCO3)[C@H](C)CN([C@@H](C)CO)S2(=O)=O`, the cytotoxicity call in assay [1] and in assay [2] was “inactive” each time. Further, the growth inhibition call in assay [3] was “inactive”.
In the case of `C[C@@H]1CCCCO[C@@H](CN(C)C(=O)Nc2ccccc2)[C@@H](C)CN([C@H](C)CO)C(=O)c2cc(NC(=O)Nc3ccc(F)cc3)ccc2O1`, the cytotoxicity call in assay [1] and in assay [2] was “inactive” each time. For the same compound, the growth inhibition call in assay [3] is “inactive”.
For `COc1ccc(S(=O)(=O)Nc2ccc3c(c2)C(=O)N([C@H](C)CO)C[C@H](C)[C@@H](CN(C)S(C)(=O)=O)OCCCC[C@H](C)O3)cc1`, the cytotoxicity call in assay [1] and in assay [2] was “inactive” each time. Moreover, the growth inhibition call in assay [3] was “inactive”.
Take `Cc1ccc(S(=O)(=O)N(C)C[C@H]2Oc3ccc(NS(=O)(=O)c4cccs4)cc3CC(=O)N([C@H](C)CO)C[C@@H]2C)cc1`: the cytotoxicity call in assay [1] and in assay [2] was “inactive” throughout. Moreover, the growth inhibition call in assay [3] was “inactive”.
Regarding `COc1ccc(NC(=O)Nc2ccc3c(c2)C(=O)N([C@@H](C)CO)C[C@@H](C)[C@H](CN(C)Cc2ccccc2)OCCCC[C@H](C)O3)cc1`, the cytotoxicity call in assay [1] was “inactive”. In addition, in assay [2], the cytotoxicity call is “active”. Further, the growth inhibition call in assay [3] was “inactive”.

These data come from the antibiotic and cytotoxicity screens of Wong et al. (2023).
